Measurements as given in PubChem BioAssay AID1645882 (National Center for Advancing Translational Sciences (NCATS), 2021).
Screen size: about 16,000 compounds; about 120 (0.75%) were called active. Inconclusive results (about 4%) are left out. Calls come from the whole dose curve; as a rule, active = well fitted inhibition curve with a large enough effect; inconclusive = small, poorly fitted or top-dose-only effect; inactive = no such curve, though single readings can be large or run the other way. The list shows a part of the results.

target: Rap guanine nucleotide exchange factor 3 (Homo sapiens) (UniProt O95398); assay: Validation qHTS for antagonist of cAMP-regulated guanine nucleotide exchange factor 3 (EPAC1); conditions: EPAC1 Rap1B-BODIPY-GDP exchange, fluorescence; series mostly up to 150 µM; activity change, negative = inhibition: at the top concentration;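 note: plate controls were DMSO for no effect and ATA control for full effect; nearly all actives have a fitted effect of over 75% in size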
Outline: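 EPAC1 (100 nM) mixed with 250 nM RAP1B-BODIPY-GDP and 50 uM GDP; compounds in concentration series, 5 min at room temperature. Fluorescence (ex 480/em 540 nm) read every 5 min for 30 min; normalized to ATA control and DMSO.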

Chain of UniProt O95398 (O95398 whole entry, looked up): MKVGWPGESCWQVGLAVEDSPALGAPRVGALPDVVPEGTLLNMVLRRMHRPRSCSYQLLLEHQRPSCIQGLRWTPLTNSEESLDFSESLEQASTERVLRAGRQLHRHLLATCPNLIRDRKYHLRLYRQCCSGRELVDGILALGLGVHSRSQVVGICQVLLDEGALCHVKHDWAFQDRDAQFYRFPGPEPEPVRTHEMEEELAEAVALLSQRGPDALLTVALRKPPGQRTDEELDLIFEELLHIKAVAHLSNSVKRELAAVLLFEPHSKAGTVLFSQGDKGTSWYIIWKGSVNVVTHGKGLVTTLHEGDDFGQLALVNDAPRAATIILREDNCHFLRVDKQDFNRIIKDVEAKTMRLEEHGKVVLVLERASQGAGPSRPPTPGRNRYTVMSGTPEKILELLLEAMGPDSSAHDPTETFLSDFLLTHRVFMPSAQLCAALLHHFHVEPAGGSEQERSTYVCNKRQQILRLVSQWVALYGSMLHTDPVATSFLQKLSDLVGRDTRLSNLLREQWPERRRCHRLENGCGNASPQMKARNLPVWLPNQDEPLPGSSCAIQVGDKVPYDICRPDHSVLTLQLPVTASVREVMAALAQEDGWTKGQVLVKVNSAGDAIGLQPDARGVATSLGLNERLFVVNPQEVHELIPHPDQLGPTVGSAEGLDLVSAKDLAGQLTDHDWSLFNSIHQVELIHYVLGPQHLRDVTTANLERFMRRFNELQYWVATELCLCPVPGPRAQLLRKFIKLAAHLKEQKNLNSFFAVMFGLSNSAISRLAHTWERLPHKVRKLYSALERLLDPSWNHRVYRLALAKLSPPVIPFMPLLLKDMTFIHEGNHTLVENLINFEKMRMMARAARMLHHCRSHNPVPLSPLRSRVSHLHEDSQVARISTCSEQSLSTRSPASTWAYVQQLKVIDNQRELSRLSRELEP

Activity change, negative = inhibition, inactive:
H-EQKQLQ-OH 25.4% [at 15.3 µM]
Cc1noc(C)c1-c1nccc(N(C)C)n1 -2.06%
COc1cc(-c2ccc(-[n+]3nc(-c4ccccc4)nn3-c3ccc([N+](=O)[O-])cc3)c(OC)c2)ccc1-[n+]1nc(-c2ccccc2)nn1-c1ccc([N+](=O)[O-])cc1 13.5%
COc1ccc(-c2coc3ccc(OC4OC(COC(C)=O)C(OC(C)=O)C(OC(C)=O)C4OC(C)=O)c(OC(C)=O)c3c2=O)cc1 (configuration not stated) 8.03%
Cc1noc(C)c1CC(=O)N1CCOc2c(cc(-c3nc4ccccc4s3)cc2OC2CCOC2)C1 (configuration not stated) -11.8%
Cc1cc(O)c2ccccc2c1O 2.15%
O=c1ccc2ccccc2o1 0.218%
COc1cccc(Cn2c(=O)c(-c3cccs3)nc3cnc(OC)nc32)c1 7.54%
CC1(C)C=Cc2cc3ccc(=O)oc3cc2O1 1.59%
NCCOB(c1ccccc1)c1ccccc1
Nc1nc(Nc2ccccc2)nc2c1ncn2[C@@H]1O[C@@H](CO)[C@H](O)[C@H]1O -12.9%
COC(=O)[C@@H]1C[C@H](NC(=O)c2ccccc2C(F)(F)F)CN1Cc1cccc(O)c1 38.7%
Cc1ccccc1-c1nccc(NCc2cccnc2)n1 0.278%
COc1cccc(Cn2c(=O)c(-c3cccs3)nc3cnc(Nc4cccc(OC)c4)nc32)c1 108%
C[C@@H]1CN(Cc2ccc3c(c2)CN(Cc2cccn2-c2ccc(Cl)cn2)CCO3)C[C@H](C)O1 24%
COC(=O)c1sccc1S(=O)(=O)N1CCC(n2c(CC3CCCC3)nc3cccnc32)CC1 -5.73%
N[C@@H](CCS(=O)O)C(=O)O
O=c1[nH]cnc2c1ncn2[C@@H]1O[C@H](CO)[C@@H](O)[C@H]1O 7%
CC(C)NC(=O)N1CC[C@@]2(CCCN(S(=O)(=O)c3ccccc3)C2)C1 -5.15%
COc1ccc(Oc2ncc3nc(-c4ccccc4)c(=O)n(C[C@H]4CCCO4)c3n2)cc1 5.41%
COc1cc2c(cc1O)CCN[C@]21CS[C@@H]2c3c(OC(C)=O)c(C)c4c(c3[C@H](COC1=O)N1[C@@H]2[C@H]2c3c(cc(C)c(OC)c3O)C[C@@H]([C@@H]1O)N2C)OCO4 -15.3% [at 320 µM]
CCCCOc1cc(CC2CNC(=O)N2)ccc1OC (configuration not stated)
Cc1cccc(CNc2ccnc(-c3ccccc3CN(C)C)n2)c1 27%
CC(=O)OC1C[C@]2(C)C(C(C)=O)CCC2C2CCC3=CC(=O)CC[C@@]3(C)C12 (some centres not stated) 4.22%
O=C1NC(=O)/C(=C/c2ccc3c(c2)OC(F)(F)O3)S1 20.2% [at 75.8 µM]
COc1cc(-c2noc(C)c2C#Cc2ccsc2)cc(OC)c1OC -0.091%
CC(C)Cn1c(=O)n(C)c(=O)c2[nH]cnc21
CN(C)c1ncc2ncc(=O)n(Cc3cccs3)c2n1 12%
COCCN1CCN(C(=O)c2cnn(-c3nccc(-c4cc5ccccc5o4)n3)c2C2CC2)CC1 15.2%
CC(C)=CCC[C@@](C)(O)[C@H]1CC=C(C)CC1 -3.4%
CC1(C)C=CC(=O)[C@]2(C)C1CC(=O)[C@]1(C)C2CC[C@@]2(C)C(c3ccoc3)OC(=O)C3OC321 (some centres not stated) -7.18%
O=C(c1csnn1)N1CCC2(CCN(Cc3ccccc3)CC2)CC1 24.4%
O=C(c1cnccn1)N1CCC2(CCCN(Cc3ccccc3)C2)CC1 1.71%
O=c1cnc2cnc(OCc3ccccc3)nc2n1Cc1ccc(F)cc1 -17.7%
CN(C)c1ccc(/C=C/c2ccnc3c(O)ccc(O)c23)cc1 14.6%
O=C1C(=O)c2ccccc2C(O)=C1C1CCC(c2ccc(Cl)cc2)CC1 (configuration not stated)
O=S(=O)(/C=C/c1ccccc1)N1CCC(n2c(C3CCCO3)nc3cccnc32)CC1 (configuration not stated) 6.55%
NC(Cc1c[nH]c2ccccc12)C(=O)O (configuration not stated) 2.39%
CC(=O)N[C@@H](C=O)[C@@H](O)[C@H](O)[C@H](O)CO 22.8%
CCS(=O)(=O)N1CCC[C@H]2CN3CCc4cc(OC)ccc4[C@@H]3C[C@@H]21
O=C(NCCc1ccccc1)[C@@H]1CC=C[C@@H]2CCN(C3CC3)C(=O)[C@@H]21 8.23%
COc1ccc(NC(=O)N2CCC3(CC2)CCN(C(=O)c2cnccn2)CC3)cc1 13.5%
COc1ccccc1C1CN(Cc2c(C)nn(C)c2Cl)Cc2ccccc2O1 (configuration not stated) 15.4%
O=C(CN1CCNCC1)NC1CCCCC1 12.9%
Cc1ccccc1CN1[C@H](C)[C@H](c2ccccc2)OCCS1(=O)=O 2.86%
COc1ccc(-n2c(=O)cnc3cnc(Oc4ccccc4)nc32)cc1 2.73%
Cc1c(C(=O)NCC(C)(C)CN(C)C)cnn1-c1nccc(-c2ccccc2F)n1 15.3%
O=c1[nH]c(=O)c2ccccc2o1 4.18%
O=S1(=O)c2cccc3cccc(c23)N1CCCN1CCN(c2ccc(F)cc2)CC1 1.62%
COc1cccc(CN2CCC3(CCC(CNC(=O)c4ccccc4)O3)CC2)c1 (configuration not stated) 3.81%
Nc1ncnc2c1ncn2C1CCCO1 (configuration not stated)
O=C1CC[C@H](O)CCN1[C@H](CSc1ccccc1)Cc1ccccc1 15.5%
COCC1CCCN(Cc2ccc3c(c2)CN(C(=O)c2cn4ccc(C)cc4n2)CCO3)C1 (configuration not stated) 16%
Cc1cnc(C)c(-c2ccc(F)c3c2OC(CNC(=O)/C=C/c2cccs2)C3)n1 (configuration not stated) -10.8%
CCNc1ncc2nc(-c3ccccc3)c(=O)n(C[C@H]3CCCO3)c2n1 13%
Cc1cc(Nc2ccccc2C(=O)O)ccc1Cl 23.7%
O=Cc1ccc(O)cc1 23.5%
N[C@@H](Cc1ccc(O)c(I)c1)C(=O)O -7.65% [at 75.8 µM]
OC[C@H]1O[C@H](n2cnc3c(NC4CCCC4)nc(Cl)nc32)[C@@H](O)[C@@H]1O 9.08%
Clc1cccc[n+]1CCCC[n+]1ccccc1Cl 7.67%
O=C(c1cnccn1)N1CCC[C@@]2(CCN(Cc3cc(C(F)(F)F)cc(C(F)(F)F)c3)C2)C1 -13.1%
Nc1ccc(S(=O)(=O)Nc2ccccn2)cc1
CN1[C@@H]2CC[C@H]1CC(OC(c1ccccc1)c1ccccc1)C2 (some centres not stated)
Cc1c(CCO)sc[n+]1CC(=O)c1ccc(F)cc1 7.71%
O=C(CCN1CCC(c2ccccc2)C1)c1ccc2c(c1)OCCO2 (configuration not stated) 12.5%
C[C@H](NC(=O)OC(C)(C)C)C(=O)c1ccco1 0.368%
c1ccc(CC[n+]2ccncc2)cc1 -0.642%
